Test results published in the supplement of paper PMC8728848.
Some of the results follow.

Key:
Assay in all cases: glycan array binding signal (z-score within array); higher = stronger binding
Conditions in all cases: glycan notation: IUPAC condensed, linker removed
[1] = target: Neu5Ac(a2-3)Gal(b1-3)GlcNAc
In short: (§1)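 The Consortium for Functional Glycomics database supplied 3228 glycan arrays, of which those lacking an available protein sequence were dropped. The binding signal, a within-array Z-score, was averaged across arrays of the same protein sequence and across linkers. Negative scores can be read as non-binding.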

[2] = target: Neu5Ac(a2-3)Gal(b1-3)GlcNAc(b1-3)Gal(b1-4)GlcNAc
In short: as §1

[3] = target: Neu5Ac(a2-3)Gal(b1-3)GlcNAc6S
In short: as §1

[4] = target: Neu5Ac(a2-3)Gal(b1-3)[Fuc(a1-4)]GlcNAc
In short: as §1

[5] = target: Neu5Ac(a2-3)Gal(b1-3)[Fuc(a1-4)]GlcNAc(b1-3)Gal(b1-4)[Fuc(a1-3)]GlcNAc
In short: as §1

[6] = target: Neu5Ac(a2-3)Gal(b1-3)[Neu5Ac(a2-3)Gal(b1-4)]GlcNAc
In short: as §1

[7] = target: Neu5Ac(a2-3)Gal(b1-3)[Neu5Ac(a2-6)]GalNAc
In short: as §1

Neu5Ac(a2-3)Gal(b1-4)Glc = target: Neu5Ac(a2-3)Gal(b1-4)Glc
In short: as §1

[8] = target: Neu5Ac(a2-3)Gal(b1-4)GlcNAc
In short: as §1

[9] = target: Neu5Ac(a2-3)Gal(b1-4)GlcNAc(b1-3)Gal(b1-4)GlcNAc
In short: as §1

[10] = target: Neu5Ac(a2-3)Gal(b1-4)GlcNAc(b1-3)Gal(b1-4)GlcNAc(b1-3)Gal(b1-4)GlcNAc
In short: as §1

[11] = target: Neu5Ac(a2-3)Gal(b1-4)GlcNAc(b1-3)Gal(b1-4)[Fuc(a1-3)]GlcNAc
In short: as §1

[12] = target: Neu5Ac(a2-3)Gal(b1-4)GlcNAc6S
In short: as §1

[13] = target: Neu5Ac(a2-3)Gal(b1-4)[Fuc(a1-3)]GlcNAc
In short: as §1

[14] = target: Neu5Ac(a2-3)Gal(b1-4)[Fuc(a1-3)]GlcNAc(b1-3)Gal
In short: as §1

[15] = target: Neu5Ac(a2-3)Gal(b1-4)[Fuc(a1-3)]GlcNAc(b1-3)Gal(b1-4)GlcNAc
In short: as §1

[16] = target: Neu5Ac(a2-3)Gal(b1-4)[Fuc(a1-3)]GlcNAc(b1-3)Gal(b1-4)[Fuc(a1-3)]GlcNAc(b1-3)Gal(b1-4)[Fuc(a1-3)]GlcNAc
In short: as §1

[17] = target: Neu5Ac(a2-3)Gal(b1-4)[Fuc(a1-3)]GlcNAc6S
In short: as §1

[18] = target: Neu5Ac(a2-3)Gal6S(b1-4)GlcNAc
In short: as §1

[19] = target: Neu5Ac(a2-3)Gal6S(b1-4)[Fuc(a1-3)]GlcNAc
In short: as §1

Neu5Ac(a2-3)GalNAc = target: Neu5Ac(a2-3)GalNAc
In short: as §1

[20] = target: Neu5Ac(a2-3)GalNAc(b1-4)GlcNAc
In short: as §1

[21] = target: Neu5Ac(a2-3)[GalNAc(b1-4)]Gal(b1-4)Glc
In short: as §1

[22] = target: Neu5Ac(a2-3)[GalNAc(b1-4)]Gal(b1-4)GlcNAc
In short: as §1

[23] = target: Neu5Ac(a2-3)[Neu5Ac(a2-6)]GalNAc
In short: as §1

[24] = target: Neu5Ac(a2-6)Gal(b1-4)GlcNAc
In short: as §1

[25] = target: Neu5Ac(a2-6)Gal(b1-4)GlcNAc(b1-2)Man(a1-3)[Neu5Ac(a2-6)Gal(b1-4)GlcNAc(b1-2)Man(a1-6)]Man(b1-4)GlcNAc(b1-4)GlcNAc
In short: as §1

[26] = target: Neu5Ac(a2-6)Gal(b1-4)GlcNAc(b1-3)Gal(b1-4)GlcNAc
In short: as §1

[27] = target: Neu5Ac(a2-6)Gal(b1-4)GlcNAc(b1-3)Gal(b1-4)[Fuc(a1-3)]GlcNAc(b1-3)Gal(b1-4)[Fuc(a1-3)]GlcNAc
In short: as §1

[28] = target: Neu5Ac(a2-6)Gal(b1-4)GlcNAc6S
In short: as §1

Neu5Ac(a2-6)GalNAc = target: Neu5Ac(a2-6)GalNAc
In short: as §1

[29] = target: Neu5Ac(a2-6)GalNAc(b1-4)GlcNAc
In short: as §1

Neu5Ac(a2-8)Neu5Ac = target: Neu5Ac(a2-8)Neu5Ac
In short: as §1

[30] = target: Neu5Ac(a2-8)Neu5Ac(a2-3)Gal(b1-4)Glc
In short: as §1

[31] = target: Neu5Ac(a2-8)Neu5Ac(a2-3)[GalNAc(b1-4)]Gal(b1-4)Glc
In short: as §1

[32] = target: Neu5Ac(a2-8)Neu5Ac(a2-8)Neu5Ac
In short: as §1

[33] = target: Neu5Ac(a2-8)Neu5Ac(a2-8)Neu5Ac(a2-3)Gal(b1-4)Glc
In short: as §1

[34] = target: Neu5Ac(a2-8)Neu5Ac(a2-8)Neu5Ac(a2-3)[GalNAc(b1-4)]Gal(b1-4)Glc
In short: as §1

B1: chitinase 3-like protein 2 (Homo sapiens) (protein)
chain: YKLVCYFTQWSQDRQEPGKFTPENIDPFLCSHLIYSFASIENNKVIIKDKSEVMLYQTINSLKTKNPKLKILLSIGGYLFGSKGFHPMVDSSTSRLEFINSIILFLRNHNFDGLDVSWIYPDQKENTHFTVLIHELAEAFQKDFTKSTKERLLLTAGVSAGRQMIDNSYQVEKLAKDLDFINLLSFDFHGSWEKPLITGHNSPLSKGWQDRGPSSYYNVEYAVGYWIHKGMPSEKVVMGIPTYGHSFTLASAETTVGAPASGPGAAGPITESSGFLAYYEICQFLKGAKITRLQDQQVPYAVKGNQWVGYDDVKSMETKVQFLKNLNLGGAMIWSIDMDDFTGKSCNQGPYPLVQAVKRSLGSL
glycan array binding signal (z-score) [1]: -0.176
glycan array binding signal (z-score) [2]: -0.214
glycan array binding signal (z-score) [3]: -0.24
glycan array binding signal (z-score) [4]: -0.23
glycan array binding signal (z-score) [5]: -0.21
glycan array binding signal (z-score) [6]: -0.116
glycan array binding signal (z-score) [7]: -0.239
glycan array binding signal (z-score) (Neu5Ac(a2-3)Gal(b1-4)Glc): -0.233
glycan array binding signal (z-score) [8]: -0.242
glycan array binding signal (z-score) [9]: -0.269
glycan array binding signal (z-score) [10]: -0.127
glycan array binding signal (z-score) [11]: -0.214
glycan array binding signal (z-score) [12]: -0.216
glycan array binding signal (z-score) [13]: -0.257
glycan array binding signal (z-score) [14]: 0.173
glycan array binding signal (z-score) [15]: -0.288
glycan array binding signal (z-score) [16]: 0.051
glycan array binding signal (z-score) [17]: -0.283
glycan array binding signal (z-score) [18]: 0.001
glycan array binding signal (z-score) [19]: -0.258
glycan array binding signal (z-score) (Neu5Ac(a2-3)GalNAc): -0.216
glycan array binding signal (z-score) [20]: -0.196
glycan array binding signal (z-score) [21]: -0.234
glycan array binding signal (z-score) [22]: -0.236
glycan array binding signal (z-score) [23]: -0.255
glycan array binding signal (z-score) [24]: -0.232
glycan array binding signal (z-score) [25]: 1.03
glycan array binding signal (z-score) [26]: -0.255
glycan array binding signal (z-score) [27]: -0.258
glycan array binding signal (z-score) [28]: -0.281
glycan array binding signal (z-score) (Neu5Ac(a2-6)GalNAc): -0.27
glycan array binding signal (z-score) [29]: -0.176
glycan array binding signal (z-score) (Neu5Ac(a2-8)Neu5Ac): -0.273
glycan array binding signal (z-score) [30]: -0.281
glycan array binding signal (z-score) [31]: -0.006
glycan array binding signal (z-score) [32]: -0.236
glycan array binding signal (z-score) [33]: 0.008
glycan array binding signal (z-score) [34]: -0.204
